# About 11,000 (3.5%) of roughly 310,000 compounds were called active. The shares of active, inactive and inconclusive entries below differ from those in the screen. Calls follow the shape of the dose curve; as a rule, active = well fitted inhibition curve with a large enough effect; inconclusive = small, poorly fitted or top-dose-only effect, or effect the other way; inactive = flat fitted curve, though single readings scatter. Potencies of inconclusive entries are left out as doubtful fits.
# Assay: VP16 counterscreen qHTS for inhibitors of ROR gamma transcriptional activity;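 also: Gal4-VP16 expression switched on by copper sulfate through the metallothionein promoter; nearly all actives have a fitted effect of over 50% in size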
# Conditions: Drosophila S2 Gal4-VP16 UAS-luciferase, luminescence, 20 h; series mostly up to 53.6 µM
# Potency is read from the fitted curve at half-maximal effect; tags tell the direction and shape of the fitted curve.
row,Structure (SMILES),Potency
1,Cc1ccccc1Nc1c(-c2ccccn2)nc2c(C)cccn12,active: 7.94 µM
2,Cc1cc(NC(=O)CSc2nccn2-c2cccc(C)c2C)no1,inactive
3,S=C(NNc1cccc(Cl)c1)NC1CCCCC1,active: 1.41 µM
4,Cc1cc(C)nc(N/N=C/c2cc(C)n(CC(F)(F)F)c2C)n1,"inconclusive [inhibitor, single point]"
5,CCN(CC(=O)NCc1ccc(Cl)cc1)C(=O)CN1C(=O)NC(CC)(c2ccccc2)C1=O (configuration not stated),inactive
6,COc1ccc(C(=O)NC(=S)Nc2ccc(CN3CCCCC3)cc2)cc1Cl,"inconclusive [inhibitor, single point]"
7,O=S(=O)(NOCc1ccc(Cl)cc1)c1ccc(Cl)cc1,inactive
8,COc1ccc(CNC(=O)CN2C(=O)C(C)N(c3ccc(C)cc3)C2=O)cc1 (configuration not stated),inactive
9,COc1ccc(NC(=O)c2nc3ccccc3s2)cc1,"inconclusive [inhibitor, single point]"
10,COc1cc(NC(=O)c2ccc(COCC(F)(F)F)cc2)cc(OC)c1OC,inactive
11,COC(=O)c1c(C)oc2ccc(N(C(=O)c3ccncc3)S(=O)(=O)c3ccccc3)cc12,"inconclusive [inhibitor, single point]"
12,CCOc1cccc2sc(N(CCN(C)C)C(=O)/C=C/c3cccs3)nc12,inactive
13,COc1ccc(C2CC(c3ccccc3)Oc3c(C)ccc(C)c32)cc1 (configuration not stated),inactive
14,Cc1cccc(NC(=S)NCCc2ccc(F)cc2)c1C,active: 6.31 µM
15,Cc1cccc(C)c1NS(=O)(=O)c1ccc(NC(=O)c2ccc(Cl)c([N+](=O)[O-])c2)cc1,"inconclusive [inhibitor, partial curve]"
16,Cc1ccc(C(=O)N/C(=C/c2ccco2)C(=O)OCN2C(=O)c3ccccc3C2=O)cc1,"inconclusive [activator, single point]"
17,NC(=O)CC(NC(=O)c1ccccc1)c1ccc(N2CCC(Cc3ccccc3)CC2)c([N+](=O)[O-])c1 (configuration not stated),active: 11.2 µM
18,COc1ccc(-n2cnnc2SCC(=O)c2ccc(S(=O)(=O)N3CCOCC3)cc2)cc1,active: 20 µM
19,O=[N+]([O-])c1cc(/C=N/n2c(-c3cccnc3)n[nH]c2=S)ccc1Cl,"inconclusive [inhibitor, partial curve]"
20,CC(/C=C(\NC(=O)c1ccccc1)C(=O)N=Nc1c(O)[nH]c2ccc(C)cc12)=C\c1ccccc1,inactive
21,CC(C)COc1ccc(CNC(=S)NCc2ccccc2)cc1,active: 17.8 µM
22,Cc1ccccc1C(O)c1ccncc1 (configuration not stated),inactive
23,O=C(CCl)Nc1cccc(-c2cnc3ccccc3n2)c1,inactive
24,CCn1c(COc2cccc(C)c2)nnc1SCC(=O)CC(=O)Nc1ccccc1OC,"inconclusive [inhibitor, partial curve]"
25,CCNc1nc(NC(C)C)nc(ON=C(C)C)n1,"inconclusive [inhibitor, single point]"
26,CCc1cccc(CC)c1NC(=O)CN1CCc2cc(OC)c(OC)cc2C1,"inconclusive [inhibitor, single point]"

row,Structure (SMILES),Potency
1,Cc1ccc(/C=N/n2c(-c3cccnc3)n[nH]c2=S)o1,inactive
2,CC(=O)c1cccc(NC(=O)COC(=O)COc2c(Cl)cc(Cl)c3ccc(C)nc23)c1,"inconclusive [inhibitor, single point]"
3,O=[N+]([O-])c1cc(C(F)(F)F)ccc1Oc1cccnc1[N+](=O)[O-],"inconclusive [inhibitor, partial curve, poor fit]"
4,COc1ccc2ccccc2c1/C=N/NC(=O)c1nnn(-c2nonc2N)c1C(C)C,"inconclusive [inhibitor, single point]"
5,CSc1ccc(C(=O)/C=C/c2ccc(N)cc2)cc1,"inconclusive [inhibitor, single point]"
6,Cc1cc(S(=O)(=O)N2CCCC(N(C)CCc3ccccn3)C2)c(C)cc1Cl (configuration not stated),inactive
7,Cc1cccc(SCc2noc(C(=O)NC(C)C)c2C(=O)O)c1,active: 15.8 µM
8,CCOC(=O)N1CCN(S(=O)(=O)c2ccc(C(=O)NNc3nc4c(C)cc(C)cc4s3)cc2)CC1,active: 20 µM
9,O=C(CSCCO)Nc1ccc([N+](=O)[O-])cc1,inactive
10,CCCC(C)NNC(=O)c1cc2ccccc2[nH]1 (configuration not stated),inactive
11,CS(=O)(=O)c1ccc(Sc2nc3ccccc3[nH]2)c([N+](=O)[O-])c1,"inconclusive [inhibitor, single point]"
12,O=C(NNC(=O)C(c1ccccc1)c1ccccc1)c1ccccn1,"inconclusive [inhibitor, partial curve]"
13,CNC(=S)N/N=C/c1ccc(-c2cc([N+](=O)[O-])ccc2Cl)o1,"inconclusive [inhibitor, single point]"
14,CN(C)c1ncc2nc(-c3cccs3)c(=O)n(CCC#N)c2n1,inactive
15,O=S(=O)(NCc1ccccn1)c1ccc(Cl)s1,"inconclusive [inhibitor, single point]"
16,COc1ccc2c(c1)CCc1cc(C(=O)O)sc1-2,inactive
17,COC(=O)c1ccc(NC(=O)CCS(=O)(=O)c2ccc(Br)cc2)cc1,active: 11.2 µM
18,COc1ccccc1NS(=O)(=O)c1cc(NC(=O)CNC(=O)c2cc(C)cc(C)c2)ccc1C,"inconclusive [inhibitor, partial curve, poor fit]"
19,CC(C)(C)C(=O)O/N=C(\N)c1ccc(-c2csnn2)cc1,"inconclusive [activator, full curve, poor fit]"
20,CCOC(=O)c1cc(C)sc1NC(=O)CCC(=O)O,inactive
21,CC(=O)c1c(C)oc2ccc(NS(=O)(=O)c3ccc(F)cc3C)cc12,active: 12.6 µM
22,C=C(CC1([C@@H](NP(=O)(c2ccccc2)c2ccccc2)[C@H]2C[C@@H]2CCCC)CC1)c1ccccc1,"inconclusive [inhibitor, single point]"
23,CCc1ccc2nc(N(CCCN(C)C)C(=O)c3ccc(S(=O)(=O)N4CCCc5ccccc54)cc3)sc2c1,"inconclusive [inhibitor, single point]"
24,Cc1ccccc1C(=O)Nc1ccc(-c2nc3ccc(C(=O)c4ccccc4)cc3[nH]2)cc1,inactive
25,NC(=O)CSc1ncc(-c2ccc([N+](=O)[O-])cc2)[nH]1,inactive
26,O=C(NC(C(=O)O)c1ccccc1)c1ccccc1 (configuration not stated),inactive

row,Structure (SMILES),Potency
1,CCOc1cc(/C=C\[N+](=O)[O-])ccc1OCC(=O)N1CCOCC1,active: 5.62 µM
2,O=C(NNc1nc2ccccc2s1)c1ccccc1F,"inconclusive [inhibitor, partial curve]"
3,CCN(CC)S(=O)(=O)c1ccc2oc(C(=O)NCC3COc4ccccc4O3)c(C)c2c1 (configuration not stated),inactive
4,COc1ccc(N=C2NC(=O)/C(=C/c3ccco3)S2)cc1,"inconclusive [activator, partial curve]"
5,CCn1c2c(c3cc(Br)ccc31)CCC/C2=N\O,inactive
6,C/C(=N/NC(=O)c1ccc(NC(=O)c2ccc(F)cc2)cc1)c1ccccc1,"inconclusive [inhibitor, single point]"
7,CC(/C=N/NC(=O)c1nnn(-c2nonc2N)c1CN(C)C)=C\c1ccco1,inactive
8,COc1cc(/C=N/N=C2/NC(=O)C(Cc3ccccc3)S2)ccc1O (configuration not stated),"inconclusive [inhibitor, single point]"
9,NC(=O)c1ccc(N=C2C(=O)Nc3ccc([N+](=O)[O-])cc32)cc1,"inconclusive [inhibitor, single point]"
10,CCOC(=O)/C(N=Nc1sc(C(=O)OCC)c(C)c1C(=O)OCC)=C(\C)O,inactive
11,O=C(Nc1ccc(S(=O)(=O)N2CCCCC2)cc1)c1ccccc1F,inactive
12,O=C1CCCC(O)=C1N=Nc1cccc(C(=O)O)c1,inactive
13,Cc1cccc(NC(=O)c2ccc(C(=O)c3ccccc3)o2)c1,"inconclusive [inhibitor, single point]"
14,C=CCc1ccc(OCCCCN2CCC(C)CC2)c(OC)c1,"inconclusive [activator, single point]"
15,Cc1cc2ncn(CCCCOc3ccccc3)c2cc1C,"inconclusive [inhibitor, single point]"
16,CCCCN(CCCC)S(=O)(=O)c1ccc(C(=O)Nc2nnc(COC)o2)cc1,active: 1 µM
17,COc1cccc(CSc2nnc(C(F)(F)F)n2Cc2ccc(F)cc2)c1,"inconclusive [inhibitor, single point]"
18,COc1cccc(-c2c(C(=O)N/N=C(\C)c3cccs3)nnn2-c2nonc2N)c1,"inconclusive [inhibitor, single point]"
19,C=CCn1c(SCN2C(=O)c3ccccc3C2=O)nc2ccc(Cl)cc2c1=O,active: 7.94 µM
20,O=C(CNC(=O)c1ccc(F)cc1)N/N=C/c1cc(Br)ccc1OCc1ccccc1,inactive
21,NS(=O)(=O)c1ccc(NC(=O)COC(=O)c2cn(-c3ccccc3)nc2-c2ccc(F)cc2)cc1,"inconclusive [inhibitor, single point]"
22,COc1ccc(-c2cc(-c3cc(C)ccc3O)[nH]n2)cc1,"inconclusive [inhibitor, single point]"
23,NCCCC[C@H](NC(=O)C1CCNCC1)c1nnc(CN)o1,inactive
24,CCOC(=O)c1ccc(NS(=O)(=O)c2ccc3oc(=O)[nH]c3c2)cc1,inactive
25,O=C(NNc1nc2ccc(Cl)cc2s1)c1cc(-c2cccs2)nc2ccccc12,"inconclusive [inhibitor, single point]"
